Measured values reported in the supplement of paper PMC3334620.
The full ranking holds about 33,000 sequences; the median of “E-score (-0.5 to 0.5)” is about -0.043, and the highest 2% start at about 0.37. This is one part of the list.

Molecular target: T1, Upc2 (UniProt Q12151)
T1 sequence: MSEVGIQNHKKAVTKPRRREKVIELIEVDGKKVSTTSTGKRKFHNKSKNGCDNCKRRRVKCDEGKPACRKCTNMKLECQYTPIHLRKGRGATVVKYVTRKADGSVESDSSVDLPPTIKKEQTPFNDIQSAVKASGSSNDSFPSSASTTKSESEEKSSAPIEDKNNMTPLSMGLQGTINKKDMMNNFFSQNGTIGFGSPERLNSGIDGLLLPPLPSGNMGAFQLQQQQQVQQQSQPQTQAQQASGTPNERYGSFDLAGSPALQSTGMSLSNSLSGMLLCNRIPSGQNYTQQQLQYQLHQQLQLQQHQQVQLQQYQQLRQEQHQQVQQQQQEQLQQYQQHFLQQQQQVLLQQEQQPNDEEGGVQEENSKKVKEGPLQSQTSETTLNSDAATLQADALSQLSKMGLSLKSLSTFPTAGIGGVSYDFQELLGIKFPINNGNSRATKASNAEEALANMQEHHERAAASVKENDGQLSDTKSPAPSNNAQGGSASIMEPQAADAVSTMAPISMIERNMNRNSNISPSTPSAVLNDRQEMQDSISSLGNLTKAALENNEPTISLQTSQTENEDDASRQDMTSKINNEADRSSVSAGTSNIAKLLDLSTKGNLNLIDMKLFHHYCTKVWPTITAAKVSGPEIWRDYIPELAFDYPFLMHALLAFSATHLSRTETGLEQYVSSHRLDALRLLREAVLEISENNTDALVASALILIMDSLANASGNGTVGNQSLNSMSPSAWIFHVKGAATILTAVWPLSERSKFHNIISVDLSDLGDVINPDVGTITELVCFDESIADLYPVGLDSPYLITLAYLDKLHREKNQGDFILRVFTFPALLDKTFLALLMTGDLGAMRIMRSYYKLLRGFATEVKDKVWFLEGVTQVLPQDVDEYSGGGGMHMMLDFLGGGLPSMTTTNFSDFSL
Assay: PBM E-score (8-mer binding enrichment) (E-score (-0.5 to 0.5)); higher = stronger / more preferred TF binding; most listed sequences are background and not binding sites
Details: protein concentration: 200 nM; construct: GST-full length
Outline: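 For each ungapped eight-base word taken together with its reverse complement, the Universal PBM Analysis Suite assigned an E-score. Binding data came from GST-tagged yeast transcription factors, applied at about 100-200 nM, on universal all-10-mer Agilent arrays made double-stranded by primer extension. Fluorescent anti-GST marked bound protein, and scans were normalised with masliner.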

Compared with GCCCACGA, GTGCGATA is higher in “PBM E-score” value: -0.148 for the first, 0.00531 for the second.

Going from ACTATGTA to ATGACTTG, the “PBM E-score” value falls from 0.0442 to -0.17.

First: ACTCCAAT
Second: GCGTGAAA
The “PBM E-score” value of the first is lower: -0.0144 for the first, 0.0202 for the second.

Compared with TCCTCCAA, CTGAACTC is higher in “PBM E-score” value: -0.215 for the first, -0.177 for the second.

First: ATGACTGC
Second: GAGTGTGC
The “PBM E-score” value of the first is lower: -0.144 for the first, -0.0494 for the second.

First: AATACCCG
Second: CTGGCAAA
The “PBM E-score” value of the first is higher: 0.114 for the first, -0.0535 for the second.

Compared with ATCTTCGA, GAGCGCCC is lower in “PBM E-score” value: -0.0389 for the first, -0.211 for the second.

First: CACAATTC
Second: TACATAAA
The “PBM E-score” value of the first is higher: -0.0348 for the first, -0.0479 for the second.

First: GAGAATGC
Second: CCCCAAGC
The “PBM E-score” value of the first is higher: 0.147 for the first, 0.0443 for the second.

First: CGGCCGAG
Second: ACAACGCC
The “PBM E-score” value of the first is higher: 0.0445 for the first, -0.0512 for the second.

Compared with TCAATAGA, CCTAGGGA is lower in “PBM E-score” value: -0.114 for the first, -0.243 for the second.

First: ATGGCCTC
Second: AACCGAGC
The “PBM E-score” value of the first is lower: -0.144 for the first, 0.325 for the second.

Compared with AGCGAGTC, AGTGCAAG is lower in “PBM E-score” value: 0.171 for the first, 0.157 for the second.

Going from CGTGATTC to ACGGGGGC, the “PBM E-score” value rises from -0.208 to 0.109.

First: TCGCCACA
Second: CATAGTAA
The “PBM E-score” value of the first is lower: 0.0491 for the first, 0.0847 for the second.

Compared with CCTTTGAA, GGGGCCGA is higher in “PBM E-score” value: -0.177 for the first, -0.161 for the second.

Going from CTGTGGCA to TAGATCCA, the “PBM E-score” value rises from -0.2 to -0.133.

First: AAGGTACT
Second: ACTATCAC
The “PBM E-score” value of the first is lower: 0.00877 for the first, 0.0913 for the second.

Going from CAAAGTGC to GATCCTAC, the “PBM E-score” value rises from -0.207 to 0.0781.

Going from ACTCCCCT to CGCCACAA, the “PBM E-score” value rises from -0.143 to 0.102.

Compared with TGGTGACA, CCAGACAG is lower in “PBM E-score” value: -0.101 for the first, -0.187 for the second.

Going from ATCGCGAT to ATCTCTGG, the “PBM E-score” value falls from 0.187 to -0.144.

First: CGCTGGTC
Second: AGGTGTAA
The “PBM E-score” value of the first is lower: -0.189 for the first, -0.059 for the second.

Going from AAGTACCC to CATATATC, the “PBM E-score” value rises from -0.113 to 0.114.

Going from ATCTGGCG to ACTCGTAA, the “PBM E-score” value rises from -0.204 to 0.433.

Going from CCTGTTAG to GAGGCGGA, the “PBM E-score” value falls from 0.0807 to -0.107.

First: CCAACAGC
Second: GACCTTAC
The “PBM E-score” value of the first is lower: -0.25 for the first, 0.0154 for the second.

Going from CGTGAATA to CGGATTAG, the “PBM E-score” value falls from 0.0229 to -0.0333.

First: TCCGCAAA
Second: GCGGCTGA
The “PBM E-score” value of the first is higher: -0.052 for the first, -0.15 for the second.

Going from AACGTCCA to AAGATCTA, the “PBM E-score” value falls from -0.0485 to -0.054.

First: CCCTATAC
Second: CCCGGTGC
The “PBM E-score” value of the first is higher: 0.342 for the first, -0.228 for the second.

First: ATTGGCGG
Second: ACCCCAAG
The “PBM E-score” value of the first is lower: -0.11 for the first, -0.108 for the second.

First: ATCGGACA
Second: CGGAAGCA
The “PBM E-score” value of the first is higher: 0.121 for the first, 0.11 for the second.

Compared with ATCTAACA, ATGGAGCG is higher in “PBM E-score” value: -0.0339 for the first, -0.0147 for the second.

First: CGGCGGTA
Second: GGGAAGGA
The “PBM E-score” value of the first is higher: 0.129 for the first, -0.112 for the second.

Compared with GTTATAGA, AAAAAATG is higher in “PBM E-score” value: 0.0588 for the first, 0.104 for the second.

First: CCAACGGC
Second: AACTCACG
The “PBM E-score” value of the first is lower: -0.232 for the first, 0.036 for the second.

Compared with TAGTGAGA, CCTATACG is higher in “PBM E-score” value: -0.00677 for the first, 0.487 for the second.

Going from TAGTTCAA to AGTGGTCG, the “PBM E-score” value rises from -0.083 to 0.103.

First: GGAGTCCC
Second: GGCTACTA
The “PBM E-score” value of the first is lower: -0.172 for the first, -0.0652 for the second.

Compared with CTCGATGC, GCCGAGAC is higher in “PBM E-score” value: -0.188 for the first, -0.0867 for the second.

First: CACTCCGC
Second: GCACTCCA
The “PBM E-score” value of the first is higher: -0.133 for the first, -0.195 for the second.

Compared with ACTTTCAG, CATATCTC is higher in “PBM E-score” value: -0.184 for the first, -0.176 for the second.
